Some of the results follow.
T1: UNK ZnF1-3 (human, UniProt Q9C0B0 31-174)
T1 sequence: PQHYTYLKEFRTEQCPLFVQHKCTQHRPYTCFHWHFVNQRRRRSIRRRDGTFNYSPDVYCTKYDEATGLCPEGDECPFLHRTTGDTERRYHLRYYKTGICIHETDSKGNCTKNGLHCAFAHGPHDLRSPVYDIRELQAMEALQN

B1: chr11:103733960:103733961:-_ENSMUSG00000034187_ENSMUST00000103075|mus_hu|motif|central (ssRNA)
RNA: GGGAGUUCUACAGUCCGACGAUCCAUUUUAACUUCCAGUCUUCCAGGUCUAAGAAGAGCCUCAUCUAUCAGAUCUGGUCGGUUGGUCAUUCCAAUGACUAGGAUGUUGUUUAGCUGCUCCACGCCAUCAAUUUUGGACAGCAACAACAGAGGAUUGAGCAUCA
B2: chr5:130458811:130458812:+_ENSMUSG00000066735_ENSMUST00000051758|mus_hu|motif|central (ssRNA)
RNA: GGGAGUUCUACAGUCCGACGAUCUUUUCACUAUCUCCUCAGUCAACGCUGAGCUGACAGUUCUUCAGUGCUACACUCCAACGGAACUGUACAGUAAGUUCUGCAGAAAUGGAUCUAAUAUUUCUACCUUUAUUUACAAAUAUCCAACAGAGGAUUGAGCAUCA
B3: chr5:128440902:128440903:+_ENSG00000066583_ENST00000173527|hu_mus|hu_hu_hu_mus_True|18_88 (ssRNA)
RNA: GGGAGUUCUACAGUCCGACGAUCUUGAACGGUGCUGCCAAGUCCUUUAGGGUAUUGUUCCGUUAUGAUAACUGGAAUCCCUAAGAUCCGAGCUCCUUGCAACAGUCUCUGUCCCACGCUAAUAAUAUCCCCAAAGUAUUUGAUCAACAGAGGAUUGAGCAUCA
B4: 33000953_33002139_1353_CDS_ENSMUSG00000038831_ENSMUST00000042615|mouse|control|control (ssRNA)
RNA: GGGAGUUCUACAGUCCGACGAUCUCUCAGAGGCCCCUCCAUAGUGGGCACAGUGGCUGAGCUUCCCACAGUACAGGUGCAAGGGCUCGUGGGGCUGUAGACACAGCUCCGAGUUCUGGGAGAAUUCCGAACUGGAACCCGCCACAACAGAGGAUUGAGCAUCA
B5: chr5:135496556:135496557:+_ENSG00000113658_ENST00000545279|hu_hu|motif|central (ssRNA)
RNA: GGGAGUUCUACAGUCCGACGAUCGUUCCUAAACUGAACCAGAAGGCUGUGUUGUGGAUUGAAUUCAUUAUGACGAGGCACGGAUACUGGAGGUAAGACUGGACUCUCCACUCUCUUAUAGUGGUAUGGGUUGAUACAAACUUCCAACAGAGGAUUGAGCAUCA
B6: chr1:54681892:54681893:+_ENSG00000116221_ENST00000360840|hu_hu|motif|central (ssRNA)
RNA: GGGAGUUCUACAGUCCGACGAUCCCAGGCCAAAUUCUUGACACCCUCGUUACAGUCCAGGUCUGUGGUAUUCAGUUGAAACACGGGGAAAUGGAAGACACGUCCAUCCGUGCCCACGCUCUGCACCACCACGGGCUGCUCCAACAACAGAGGAUUGAGCAUCA
B7: chr10:98487791:98487792:+_ENSMUSG00000019943_ENSMUST00000020107|mus_mus|FALSE|FALSE (ssRNA)
RNA: GGGAGUUCUACAGUCCGACGAUCCAUGCAGCACGUUAAUGGCAAAUUCAAGACGAGGAGUCCACCUUGGGCUCCUGGUCUAAAUAUGCGUCCCAGCAUAUCAUGCUACCUCUUUUUACAGUAUGAAUAACUACAAACACCUGACAACAGAGGAUUGAGCAUCA
B8: chr2:48026839:48026840:+_ENSG00000116062_ENST00000540021|hu_hu|hu_hu_hu_mus_False|1_108 (ssRNA)
RNA: GGGAGUUCUACAGUCCGACGAUCAUAGUGUGCCACUAGCGUCCUAAAUCUGGAACAGUGGCGGUCAUCCGAAAACUGGCCGAUGAAAAACUUGCCCAGUGAAGUGUCCACAAAGCAAACACCAUACACACGAGUGUGGCCAGACAACAGAGGAUUGAGCAUCA
B9: chr15:12269436:12269437:+_ENSMUSG00000022200_ENSMUST00000059680|mus_mus|FALSE|FALSE (ssRNA)
RNA: GGGAGUUCUACAGUCCGACGAUCUAAAAGACUUUUUCUUCUCAUUCCACAAGCCUCUAACUGUAACCUUCCUCUCAAAGCUAAUUCAAUUAACAUACAGCCACGUAAUCCAGAUGAUAUACAGUCAUUCCAAAAUGAUGUGUACAACAGAGGAUUGAGCAUCA
B10: chr7:44244176:44244177:+_ENSG00000106636_ENST00000223369|hu_mus|FALSE|FALSE (ssRNA)
RNA: GGGAGUUCUACAGUCCGACGAUCACUGUCGCUCCGGACGUAGACAUGGCAAAGAUACUCUUGUUCUUUGACAGAAGCUCUGCUGCCUUUCCCCGAGCGUUCCACAAUCAGUUGACUUGUAAAGGUCAUGAAUUCCUGCACACUCAACAGAGGAUUGAGCAUCA
B11: chr10:33190432:33190433:-_ENSG00000150093_ENST00000302278|hu_mus|hu_hu_hu_mus_True|18_68 (ssRNA)
RNA: GGGAGUUCUACAGUCCGACGAUCUACAUUUUCCAAACCUGCAUGUGAAUAAAACCCUGGCCACAGAGCCCUAAAGCUACCCUACUGUGACUAAGAUGCUGCUGCUGUGAGCUUGGUUGUUGUGGGACCGCCUGAGUAGGAUUCCAACAGAGGAUUGAGCAUCA
B12: 184045049_184045169_3417_CDS_ENSG00000114867_ENST00000411531|human|control|control (ssRNA)
RNA: GGGAGUUCUACAGUCCGACGAUCGGGCCGUUCUCUACUCCGCUCCUCCACUUCCUUGCUGAAGCUCCGCUUGGUAGCAGGUGUCCGCGCACGAUCAAGCCGGUCCCCACGGUCCCCUCCCCGUUCACUCCGCUCUAGGCGGUCCAACAGAGGAUUGAGCAUCA
B13: chr16:94664806:94664807:+_ENSMUSG00000040785_ENSMUST00000117648|mus_hu|FALSE|FALSE (ssRNA)
RNA: GGGAGUUCUACAGUCCGACGAUCAUGAUGACCCUCAAAAUAGGCAGCAGCAUUUUUAUCUGCUCUGUCAUUGGCUACAAAAGACGGCACCACUGGUACUGAUCUUGGUAGCUGAUAUUCAGGAGAAAGGCUGGCCAAGGGUGUCAACAGAGGAUUGAGCAUCA
B14: chr1:163117127:163117128:-_ENSG00000143248_ENST00000313961|hu_hu|FALSE|FALSE (ssRNA)
RNA: GGGAGUUCUACAGUCCGACGAUCGCAGGGUUAUUAUGGAGGAAAUAACUCACAGGAUGAUUUCAUAGCCUGGCUAAAUUACUACUUGAUUAACUCCUGAUAAAACUCAGAGCGCACAAAGCGAGGCAGAGAAUCCUUUUCCAUCAACAGAGGAUUGAGCAUCA

target: T1, UNK ZnF1-3; experiment: nsRBNS (natural sequence RNA bind-n-seq); RBNS binding buffer (assumed for nsRBNS): 25 mM Tris pH 7.5, 150 mM KCl, 3 mM MgCl2, 0.01% Triton X-100, 500 ug/ml BSA, 20 U/ml SUPERase-In, 4 C; UNK is unkempt and MSI1 is Musashi-1; names of the RNAs are library labels; protein concentration not given here; high values mean tight binding

Binder | binding signal [enrichment R]
B1 | 0.818
B2 | 0.527
B3 | 0.799
B4 | 1.43
B5 | 1.31
B6 | 0.909
B7 | 0.799
B8 | 0.968
B9 | 0.964
B10 | 0.701
B11 | 0.972
B12 | 0.975
B13 | 1.25
B14 | 1.65
